Over roughly 33,000 sequences, “E-score (-0.5 to 0.5)” has its median near -0.054; the highest 2% begin near 0.39. The list shows a part of the results.
Target: Ylr278c (UniProt Q05854)
Test: PBM E-score (8-mer binding enrichment) (E-score (-0.5 to 0.5)); higher = stronger / more preferred TF binding; most listed sequences are background and not binding sites
Conditions: protein concentration: 200 nM; construct: GST-DNA-binding domain
Method in brief: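 The E-score, a modified Wilcoxon-Mann-Whitney statistic, was computed by the Universal PBM Analysis Suite for every ungapped eight-base word pooled with its reverse complement. Scans behind it were normalised with masliner after bound GST-tagged yeast transcription factors were detected with fluorescent anti-GST. The proteins, at about 100-200 nM, had been applied to universal all-10-mer Agilent arrays made double-stranded by primer extension.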

Sequence | PBM E-score
CACTTCTG | -0.173
CATTTTTA | -0.0238
AGCTGCTA | -0.313
CACTAATC | 0.2
GCTACGAC | 0.0162
AACGACTC | -0.234
CAGCGCGC | 0.0979
ACCGGCAG | 0.211
CTGGAAAC | -0.177
GCTACACA | -0.217
CTACATTC | 0.0132
GGAAAACC | 0.166
GCCCGTCA | 0.127
CTATTCCC | 0.0244
ATTGGGAA | -0.0378
TGCTTTAA | -0.128
GACGTTCA | -0.0489
GCGGCCCA | 0.137
CCCTTACA | -0.0786
CCGAGTGC | 0.278
AATCCTGA | -0.137
CATGTTCA | -0.309
ATTAGTAA | 0.0338
ATCGTTCG | 0.0345
GAGCCCTA | -0.00115

Sequence | PBM E-score
CACGAATC | -0.0738
CGTATACA | -0.171
CATCCATC | 0.0088
GCGTCGAC | -0.0158
GTTCTTGA | -0.156
AGTGGGTG | -0.0443
AACCCTGG | -0.22
CCTTGACA | -0.233
CTTTTTGA | -0.147
ACATATCT | 0.0217
ACTTAGCC | -0.186
CGCTGTTA | 0.075
AATGTGTG | -0.07
GTGTCGAA | -0.112
AACAAAGG | -0.0718
CCGACTTA | 0.215
CCACCACA | 0.00265
ATTGTGTA | 0.00738
AGAGTCAG | -0.0739
AGCAGGAG | 0.0513
AACCTAAA | -0.0676
AGATGATA | 0.0211
CACACTTC | -0.0914
CATTGCCG | 0.169
AGTAGACA | 0.0993

Sequence | PBM E-score
CCCGTCAA | 0.16
AGGTACGA | -0.129
GAAGCCAC | 0.00034
AAACAGCT | -0.108
GAAGCAGA | -0.192
GATGAATA | -0.0352
AGTCCCAT | -0.0893
TCTGTCCA | 0.0679
GAACCCTA | -0.014
AGAGTTTC | -0.11
CAGGAGTA | -0.0482
CGGATTTC | 0.448
TCAGGGGA | -0.247
AAATCTCG | 0.11
CCCCGCAA | 0.225
CCACCTTC | -0.177
CAGTGAGG | -0.256
GGTTCGAA | 0.0257
CCTCTCAA | 0.0673
ACAAGCAG | -0.0116
CACTTGCG | -0.117
ATGTGCGC | 0.0456
CAGTGGAG | -0.0746
CGGCTTCA | 0.164
AGGCGTAG | -0.179

Sequence | PBM E-score
CGCTCGGC | 0.259
CCCGACCA | 0.266
GTCCGCAC | 0.308
ACGGACGT | 0.23
CAATTGCA | -0.11
GATGAGCA | -0.145
AATAGAAA | -0.0484
CACAAAGC | -0.122
TGCGGAAA | 0.334
CACTAGAG | -0.21
AGTCGCGG | 0.121
ACGTTACA | -0.406
AACAGCGG | 0.2
TCTCGAAA | -0.21
CGGGCTAG | 0.259
GGTGGAAC | -0.135
AAATTGTC | 0.0669
AAGTCCCG | 0.324
ACGAGAAA | -0.0602
AGCTTTGC | -0.045
AAGTTAAT | -0.144
ACATATCC | 0.148
GAGCCTCC | 0.0105
TAGATGCA | -0.179
ACTGTTCC | 0.0791

Sequence | PBM E-score
CCCTTCCA | -0.108
GATTGAAC | -0.0676
ACGATATC | -0.0815
ACCCAACT | -0.211
AACCCCGC | 0.41
AATGCTCG | -0.103
CAAAAACA | -0.174
AATTGTTA | -0.0746
CAATAAAC | 0.105
ACCGATCA | 0.171
ACTTTGCA | -0.121
TACTCAAA | -0.144
CCGTGTTC | 0.203
CCAGCCTA | -0.214
ATTGGTAC | 0.0452
TACATGCA | -0.0669
AACGAATC | 0.0405
GATTAGAC | -0.107
GCACATGC | 0.044
GGTGCTAC | -0.0466
CCGGATTA | 0.455
AGCGGACC | 0.252
ATACTCAC | -0.149
CGTACATC | -0.0477
ATGAGGGG | -0.099

Sequence | PBM E-score
GAGTAAGC | -0.0825
CTGTCGCA | -0.00586
ATAACGGC | 0.158
ATTGCTTA | -0.0717
ACCAGAAT | -0.187
CATAAACG | -0.0617
ACACATCG | -0.0839
GGCGTCAA | -0.0152
ATTTTGTG | 0.0609
ACCCGCAT | 0.161
CCACAGCG | -0.0839
GCCCGCCA | 0.196
CAGCTTAG | -0.202
ATTTGCAC | -0.228
CGCCCCAG | -0.018
CCTTGATC | -0.158
ACATGAAG | -0.0787
CACAATGG | -0.0664
CATCATTA | 0.0546
TTATATAA | 0.195
GAGCATGC | -0.0798
AGCGGCGG | 0.353
AGCATATA | 0.0738
GGGTCAGA | -0.167
CTCTACAA | -0.214

Sequence | PBM E-score
AGATACAA | -0.0944
CCAACTGC | 0.0912
ACAGCGGA | 0.275
AAGCGGGA | 0.219
CACCGAGA | 0.034
AACCGCAC | -0.0338
GTTGATTA | -0.0327
CAGCACAA | -0.0202
ACGGGGCT | 0.201
CTAATCAG | -0.0685
CCGCCATC | 0.167
TATCTACA | -0.119
GAGGTAAC | 0.081
ACAAGAAC | 0.0809
CGCGGCCA | 0.123
GTAGCTTA | -0.159
CATCCTCC | 0.201
AGAACTTG | -0.158
AATGGCTG | -0.163
CAACCCTA | -0.215
ATAGTCGC | -0.0527
ATGTGAGA | -0.196

Source: the supplement of paper PMC3334620
